# Screen size: about 200,000 compounds; about 25 (0.01%) were called active. Roughly 23% stayed inconclusive and do not appear here. The call rests on the fitted dose curve; in most records, active means well fitted inhibition curve with a large enough effect in the signal ratio, with a control signal flat (not every such curve was filed as active); inconclusive means small, poorly fitted or top-dose-only effect, or effect the other way, or a change in a side signal; inactive means flat fitted curve, though single readings scatter; the % refers to the signal ratio. The list shows a part of the results, in another mix than the full data.
# Assay: qHTS Assay for Modulators of Lamin A Splicing
# Details: HeLa LMNA splicing GFP/RFP minigene ratio, 48 h; series mostly up to 46.1 µM; ratio change, negative = inhibition: at the top concentration
# How it was run: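 S3 HeLa cells stably expressing lamin A-EGFP splicing minigene plus DsRed2, 600 cells/well, 48 h compound exposure at 37C. Laser-scanning cytometry; analysed as GFP (500-530 nm)/RFP (575-640 nm) total intensity ratio; 0.5% DMSO vehicle.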
# On the % scale 0 is the no-effect control and ±100 the full control effect; potency means the concentration at half of the fitted maximal effect.
SMILES,"ratio change, negative = inhibition",Potency
NCC[C@H](O)C(=O)N[C@@H]1C[C@H](N)[C@@H](O[C@H]2O[C@H](CN)[C@@H](O)[C@H](O)[C@H]2O)[C@H](O)[C@H]1O[C@H]1O[C@H](CO)[C@@H](O)[C@H](N)[C@H]1O,inactive: 7.55%,
Cc1ccc(C2C(=O)N(C3CCC(C)CC3)CC(=O)N2C2CCCC2)cc1 (stereo not given),inactive: 0.441%,
COc1c2c(nc3ccccc13)OC(C(C)(O)CO)C2 (stereo not given),inactive: 7.34%,
CN(C)[C@@H]1C(=O)C(C(N)=O)=C(O)[C@@]2(O)C(=O)C3=C(O)c4c(O)ccc(Cl)c4[C@@H](O)[C@H]3C[C@@H]12,inactive: 1.02%,
CC(C)(C)NCC(O)COc1cccc2c1C[C@H](O)[C@H](O)C2 (stereo not given in full),inactive: 2.92%,
COc1ccc(/C=C2\SC(c3ccc(C)cc3)=NC2=O)cc1OC,inactive: -6.4%,
C#C[C@]1(O)CC[C@H]2[C@@H]3CCC4=C(CCC(=O)C4)[C@H]3CC[C@@]21C,inactive: 1.12%,
CC(C)(C)NCC(O)c1cc(O)cc(O)c1 (stereo not given),inactive: -1.07%,
CCOC(=O)c1c(-c2cccc(C)c2)csc1NC(=O)c1c(-c2ccccc2)noc1C,,active: 0.631 µM
CCOc1ccc(NC(C)=O)cc1,inactive: -9.42%,
CN1CCC[C@@H]1CCO[C@](C)(c1ccccc1)c1ccc(Cl)cc1,inactive: -19.1%,
CCOC(=O)CN1C(=O)N[C@H](c2ccc(Br)cc2)C(C(C)=O)=C1C,inactive: 2.62%,
CCCCOC(=O)C1C2C=CC3(CN(CCc4ccccc4)C(=O)C13)O2 (stereo not given),inactive: 0.3%,
C/C(CCN1CCc2nc(-c3ccccc3)c(-c3ccccc3)cc2C1)=N\O[C@@H](C)c1cn([C@H](CO)Cc2ccccc2)nn1,inactive: -10.4%,
Cc1ccccc1C(OCCN(C)C)c1ccccc1 (stereo not given),inactive: 0.356%,
C[C@@]12CC3CC(N)(C1)C[C@@](C)(C3)C2,inactive: -7.39%,
CN1CCC(=C2c3ccccc3CCc3sccc32)CC1,inactive,
COc1ccccc1N1CCN(CCCCNC(=O)c2ccc3ccccc3c2)CC1,inactive: -25.5%,
CC(O)(P(=O)(O)O)P(=O)(O)O,inactive: -1.55%,
Cc1cnc(C(=O)NCCc2ccc(S(=O)(=O)NC(=O)NC3CCCCC3)cc2)cn1,inactive,
CCOC(=O)[C@H](CCc1ccccc1)N[C@@H](C)C(=O)N1CCC[C@H]1C(=O)O,inactive: -2.03%,
CC(=O)O[C@]1(C(C)=O)CC[C@@H]2[C@@H]3C=C(C)C4=CC(=O)CC[C@@]4(C)[C@H]3CC[C@]21C,inactive: 13%,
CN(C)CC/C=C1\c2ccccc2COc2ccccc21,inactive,

SMILES,"ratio change, negative = inhibition",Potency
C[C@]12CC[C@@H]3c4ccc(O)cc4CC[C@H]3[C@@H]1C[C@@H](O)[C@@H]2O,inactive: 10.1%,
O=C(CSCc1ccc(F)cc1)N1CCN(c2ccccc2)CC1,inactive: 11.4% [at 46 µM],
CCOc1cc(N2CCOCC2)c(OCC)cc1NC(=O)Cn1[nH]c(=O)c2ccccc2c1=O,inactive: 6.3%,
Cc1ccccc1N1C(=O)c2cc(S(N)(=O)=O)c(Cl)cc2NC1C (stereo not given),inactive: -18.8%,
Nc1nc(SCc2ccc([N+](=O)[O-])cc2)c2ncn([C@@H]3O[C@H](CO)[C@H](O)[C@H]3O)c2n1,inactive: -17.5%,
C[C@@H]1C[C@H](OC(=O)c2ccccc2O)CC(C)(C)C1,inactive: 3.2%,
C[C@]12CC[C@@H]3c4ccc(O)cc4CC[C@H]3[C@@H]1C[C@H](O)C2O (stereo not given in full),inactive: 1.99%,
CC(C)NC[C@H](O)c1ccc(O)c(O)c1,inactive: -14.7%,
O=C(CCN1C(=O)/C(=C\c2cccs2)SC1=S)Nc1ccccn1,inactive: -21.6% [at 46 µM],
CC1CCC(C(C)C)C(OC(=O)Cn2c(-c3ccc(Br)cc3)[n+](C)c3ccccc32)C1 (stereo not given),inactive: -24.2% [at 46 µM],
O=C(NN1C(=O)/C(=C\c2cccnc2)SC1=S)C(c1ccccc1)c1ccccc1,inactive: -21.1%,
CCCCNC(=O)NS(=O)(=O)c1ccc(C)cc1,inactive,
CC(C)NCC(O)COc1cccc2ccccc12 (stereo not given),inactive: 3.12%,
CC1(C)NC(=O)N(c2ccc([N+](=O)[O-])c(C(F)(F)F)c2)C1=O,inactive: -1.21%,
CCCCOc1cc(C(=O)NCCN(CC)CC)c2ccccc2n1,inactive: 5.73%,
O=C1CCc2cc(OCCCCc3nnnn3C3CCCCC3)ccc2N1,inactive,
Fc1ccc(C(c2ccc(F)cc2)N2CCN(C/C=C\c3ccccc3)CC2)cc1,inactive: -13.1%,
COc1cnc(NS(=O)(=O)c2ccc(N)cc2)nc1,inactive: 1.17%,
O=C(O)CCC(=O)Nc1ccc(S(=O)(=O)Nc2nccs2)cc1,inactive: 4.54%,
CC1CNCCN1S(=O)(=O)c1cccc2cnccc12 (stereo not given),inactive: -1.13%,
CNCCC(Oc1ccccc1OC)c1ccccc1 (stereo not given),inactive: -21.2%,
CCOC(=O)C1=C[C@]2(CC)CCCN3CCc4c(n1c1ccccc41)[C@@H]32,inactive: -16%,
O=C1C2C3c4ccccc4C(c4ccccc43)[C@@H]2c2nc3ccccc3n21 (stereo not given in full),inactive: 1.81%,

SMILES,"ratio change, negative = inhibition",Potency
CCOc1ccc(CNC(=O)c2ccc(Sc3ccc(Cl)cc3)c(NC(C)=O)c2)cc1,inactive: -22.3% [at 46 µM],
CNC(=O)/C(=C\c1ccc2c(c1)OCO2)NC(=O)c1ccc(Br)cc1,inactive: -21.4%,
CN1C(C(=O)Nc2ccccn2)=C(O)c2sccc2S1(=O)=O,inactive: -0.123%,
Cc1[nH]c(=O)c(C#N)cc1-c1ccncc1,inactive: -19.3%,
COCCN1C(=O)N[C@@H](c2cccc(C(F)(F)F)c2)C(C(=O)OC)=C1C,inactive: -4.38% [at 9.22 µM],
COc1cccc(OC)c1OCCNCC1COc2ccccc2O1 (stereo not given),inactive: -5.53%,
COc1ccc(CCn2c(=O)[nH]c3cc(C(=O)N4CCN(c5ccccc5)CC4)ccc3c2=O)cc1OC,inactive: 13.1% [at 46 µM],
Nc1c(C(=O)Nc2cccc(F)c2)nnn1-c1cccc(C(F)(F)F)c1,inactive: 18.3% [at 46 µM],
CC(=O)c1cc2c(cc1N/C(=N/S(=O)(=O)c1ccccc1)c1ccc(Cl)cc1)OCO2,inactive: -5.16% [at 46 µM],
N#C/C(=C/c1ccco1)c1nc2ccccc2s1,inactive: -6.44%,
O=C(NCc1ccccc1)[C@@H]1C[C@H]1[C@@H](NP(=O)(c1ccccc1)c1ccccc1)c1ccccc1,inactive: 5.06%,
NCCCCNCCCN,inactive: 13.7%,
N[C@H](CO)C(=O)O,inactive: -23.3%,
CCCCS(=O)(=O)/C=C/[C@H]1[C@H](S(=O)(=O)CCCC)[C@H]2C=C[C@@H]1C2,inactive: -3.27%,
CC(C)NC[C@H](O)COc1ccc(CC(N)=O)cc1,inactive,
COc1cc(OC)c(C(=O)CCCN2CCCC2)c(OC)c1,inactive: -4.44%,
CN1CCC(=C2c3ccccc3CC(=O)c3sccc32)CC1,inactive: -11.1% [at 46 µM],
CCCN(CCC)C(=O)C(CCC(=O)O)NC(=O)c1ccccc1 (stereo not given),inactive: -23.4%,
COc1ccc(-n2c3c(c(=O)[nH]c2=O)C(NC(C)=O)(C(F)(F)F)C(=O)N3)cc1 (stereo not given),inactive: 12.4% [at 46 µM],
CC(N)(Cc1ccc(O)c(O)c1)C(=O)O (stereo not given),inactive: -17.8%,
COc1cc(/C=C2\SC(=S)N(CC(=O)NC(C)(C)C)C2=O)cc(OC)c1OC,inactive: 4.31% [at 9.22 µM],
CCC(=O)O[C@@]1(C(=O)CCl)C(C)CC2C3CCC4=CC(=O)C=C[C@@]4(C)[C@]3(F)C(O)C[C@]21C (stereo not given in full),inactive: -16.3%,
COc1cc(NS(=O)(=O)c2ccc(N)cc2)nc(OC)n1,inactive: 4.32%,

SMILES,"ratio change, negative = inhibition",Potency
CN(C)CCOC(=O)C1(c2ccccc2)CCOCC1,inactive: -6.66%,
Cn1sc(=O)c2cc(S(=O)(=O)NC3CC3)ccc21,,active: 11.2 µM
O=C1S/C(=C/c2ccc(N3CCOCC3)o2)C(=O)N1Cc1c(F)cccc1Cl,inactive: 6.27%,
CCCC(=O)O[C@]1(C(=O)CO)CC[C@H]2[C@@H]3CCC4=CC(=O)CC[C@]4(C)[C@H]3[C@@H](O)C[C@@]21C,inactive: -5.54%,
COC(=O)/C(=C\c1ccc2c(c1)c1ccccc1n2C)NC(=O)c1ccccc1,inactive: -21.5%,
CCC(Oc1ccccc1)C(=O)NC1C(=O)N2C1SC(C)(C)C2C(=O)O (stereo not given),inactive: -14.2% [at 46 µM],
CC1(C)[C@@H](O)CC[C@]2(C)[C@H]3C(=O)C=C4[C@@H]5C[C@@](C)(C(=O)O)CC[C@]5(C)CC[C@@]4(C)[C@]3(C)CC[C@@H]12,inactive: -5.48%,
O=C(N[C@@H](CO)[C@@H](O)c1ccc([N+](=O)[O-])cc1)C(Cl)Cl,inactive: -18.7%,
CCOC(=O)c1cnc2c(C)cccc2c1NCCc1ccc(OC)c(OC)c1,inactive: -18.9% [at 46 µM],
CN1C(=O)/C(=C/c2cc(N=Nc3ccccc3)ccc2O)SC1=S,inactive: 1.77%,
CC(C[N+](C)(C)C)OC(N)=O (stereo not given),inactive,
Cc1onc(-c2c(Cl)cccc2Cl)c1C(=O)NC1C(=O)N2C1SC(C)(C)C2C(=O)O (stereo not given),inactive: 6.99% [at 46 µM],
Cc1cn([C@H]2C[C@H](N=[N+]=[N-])[C@@H](CO)O2)c(=O)[nH]c1=O,inactive: -3.71%,
COC(=O)[C@@H](N)CS,inactive: -1.75%,
CCCCC1C(=O)N(c2ccccc2)N(c2ccccc2)C1=O,inactive: -5.59%,
CCCc1nc2c(C)cc(-c3nc4ccccc4n3C)cc2n1Cc1ccc(-c2ccccc2C(=O)O)cc1,inactive: 18.5% [at 46 µM],
N=C(N)N1CCc2ccccc2C1,inactive,
O=C(O)Cc1cc(I)c(Oc2ccc(O)c(I)c2)c(I)c1,inactive: -24%,
O=C(Nc1ccc(Cl)cc1)N1CCC(c2ccccc2)C1 (stereo not given),inactive: -2.27% [at 46 µM],
CC[C@@H]1OC(=O)[C@H](C)[C@H](O[C@@H]2C[C@](C)(OC)[C@H](O)[C@H](C)O2)[C@H](C)[C@H](O[C@@H]2O[C@@H](C)C[C@@H](N(C)C)[C@@H]2O)[C@](C)(O)C[C@H](C)C(=O)[C@H](C)[C@H](O)[C@]1(C)O,inactive: -12%,
CC(/C=N/NC(=O)c1ccncc1)=C\c1ccc(C(C)C)cc1,inactive: -5.9%,

# Reference: PubChem BioAssay AID1487 (National Center for Advancing Translational Sciences (NCATS), 2009)
